From PMC9911399, “Two distinct binding modes provide the RNA-binding protein RbFox with extraordinary sequence specificity”
Changes are numbered by the printed parent chain; changes in the protein carry UniProt numbers. This is one part of the list.

T1: RBFOX1 RRM RbFoxmut (Fox-RRM*) (Homo sapiens, UniProt Q9NWB1 109-208, R118D;E147R;N151S;E152T)
T1 sequence: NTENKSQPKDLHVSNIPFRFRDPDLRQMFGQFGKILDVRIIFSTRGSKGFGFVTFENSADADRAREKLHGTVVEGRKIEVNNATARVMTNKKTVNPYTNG

B1: GUCGAGG (DNA:RNA)
RNA: GGGAGACCGGAAUUCAGAUUGUCCGUCGAGGUUAAAUCCCGUCGUAGCCACCA
DNA 1: CAATCTGAATTCCGGTCTCCC
DNA 2: TGGTGGCTACGACGGGATT
B2: GAGGGUU (DNA:RNA)
RNA: B1 RNA with U26A, C27G, A29G, G30U, G31U
DNA 1: CAATCTGAATTCCGGTCTCCC
DNA 2: TGGTGGCTACGACGGGATT
B3: CCGUGAG (DNA:RNA)
RNA: B1 RNA with G25C, U26C, C27G, G28U, A29G, G30A
DNA 1: CAATCTGAATTCCGGTCTCCC
DNA 2: TGGTGGCTACGACGGGATT
B4: UAGCCCG (DNA:RNA)
RNA: B1 RNA with G25U, U26A, C27G, G28C, A29C, G30C
DNA 1: CAATCTGAATTCCGGTCTCCC
DNA 2: TGGTGGCTACGACGGGATT
B5: AUCGCAU (DNA:RNA)
RNA: B1 RNA with G25A, A29C, G30A, G31U
DNA 1: CAATCTGAATTCCGGTCTCCC
DNA 2: TGGTGGCTACGACGGGATT
B6: AUACCAC (DNA:RNA)
RNA: B1 RNA with G25A, C27A, G28C, A29C, G30A, G31C
DNA 1: CAATCTGAATTCCGGTCTCCC
DNA 2: TGGTGGCTACGACGGGATT
B7: CCCACAC (DNA:RNA)
RNA: B1 RNA with G25C, U26C, G28A, A29C, G30A, G31C
DNA 1: CAATCTGAATTCCGGTCTCCC
DNA 2: TGGTGGCTACGACGGGATT
B8: CGUACAA (DNA:RNA)
RNA: GGGAGACCGGAAUUCAGAUUGUCCCGUACAAUUAAAUCCCGUCGUAGCCACCA
DNA 1: CAATCTGAATTCCGGTCTCCC
DNA 2: TGGTGGCTACGACGGGATT
B9: AUGACUC (DNA:RNA)
RNA: B8 RNA with C25A, G26U, U27G, A30U, A31C
DNA 1: CAATCTGAATTCCGGTCTCCC
DNA 2: TGGTGGCTACGACGGGATT
B10: UUCUUAG (DNA:RNA)
RNA: B1 RNA with G25U, G28U, A29U, G30A
DNA 1: CAATCTGAATTCCGGTCTCCC
DNA 2: TGGTGGCTACGACGGGATT
B11: UUUGCAC (DNA:RNA)
RNA: B8 RNA with C25U, G26U, A28G, A31C
DNA 1: CAATCTGAATTCCGGTCTCCC
DNA 2: TGGTGGCTACGACGGGATT
B12: ACGACAG (DNA:RNA)
RNA: B8 RNA with C25A, G26C, U27G, A31G
DNA 1: CAATCTGAATTCCGGTCTCCC
DNA 2: TGGTGGCTACGACGGGATT
B13: UUACGGC (DNA:RNA)
RNA: B1 RNA with G25U, C27A, G28C, A29G, G31C
DNA 1: CAATCTGAATTCCGGTCTCCC
DNA 2: TGGTGGCTACGACGGGATT
B14: AUUCCUU (DNA:RNA)
RNA: B8 RNA with C25A, G26U, A28C, A30U, A31U
DNA 1: CAATCTGAATTCCGGTCTCCC
DNA 2: TGGTGGCTACGACGGGATT
B15: CAGAACG (DNA:RNA)
RNA: B8 RNA with G26A, U27G, C29A, A30C, A31G
DNA 1: CAATCTGAATTCCGGTCTCCC
DNA 2: TGGTGGCTACGACGGGATT
B16: GUAUUAA (DNA:RNA)
RNA: B8 RNA with C25G, G26U, U27A, A28U, C29U
DNA 1: CAATCTGAATTCCGGTCTCCC
DNA 2: TGGTGGCTACGACGGGATT
B17: UCAGCGU (DNA:RNA)
RNA: B1 RNA with G25U, U26C, C27A, A29C, G31U
DNA 1: CAATCTGAATTCCGGTCTCCC
DNA 2: TGGTGGCTACGACGGGATT
B18: AAUACUC (DNA:RNA)
RNA: B8 RNA with C25A, G26A, A30U, A31C
DNA 1: CAATCTGAATTCCGGTCTCCC
DNA 2: TGGTGGCTACGACGGGATT
B19: UCCGGUA (DNA:RNA)
RNA: B1 RNA with G25U, U26C, A29G, G30U, G31A
DNA 1: CAATCTGAATTCCGGTCTCCC
DNA 2: TGGTGGCTACGACGGGATT
B20: CAGAACC (DNA:RNA)
RNA: B8 RNA with G26A, U27G, C29A, A30C, A31C
DNA 1: CAATCTGAATTCCGGTCTCCC
DNA 2: TGGTGGCTACGACGGGATT
B21: CACACUG (DNA:RNA)
RNA: B8 RNA with G26A, U27C, A30U, A31G
DNA 1: CAATCTGAATTCCGGTCTCCC
DNA 2: TGGTGGCTACGACGGGATT
B22: CUUGGAC (DNA:RNA)
RNA: B8 RNA with G26U, A28G, C29G, A31C
DNA 1: CAATCTGAATTCCGGTCTCCC
DNA 2: TGGTGGCTACGACGGGATT
B23: GCCGCAG (DNA:RNA)
RNA: B1 RNA with U26C, A29C, G30A
DNA 1: CAATCTGAATTCCGGTCTCCC
DNA 2: TGGTGGCTACGACGGGATT
B24: UAGGCUA (DNA:RNA)
RNA: B8 RNA with C25U, G26A, U27G, A28G, A30U
DNA 1: CAATCTGAATTCCGGTCTCCC
DNA 2: TGGTGGCTACGACGGGATT
B25: AGGUUAA (DNA:RNA)
RNA: B8 RNA with C25A, U27G, A28U, C29U
DNA 1: CAATCTGAATTCCGGTCTCCC
DNA 2: TGGTGGCTACGACGGGATT
B26: UACAUGC (DNA:RNA)
RNA: B1 RNA with G25U, U26A, G28A, A29U, G31C
DNA 1: CAATCTGAATTCCGGTCTCCC
DNA 2: TGGTGGCTACGACGGGATT
B27: AUGCCUA (DNA:RNA)
RNA: B8 RNA with C25A, G26U, U27G, A28C, A30U
DNA 1: CAATCTGAATTCCGGTCTCCC
DNA 2: TGGTGGCTACGACGGGATT
B28: UGUAGUU (DNA:RNA)
RNA: B8 RNA with C25U, C29G, A30U, A31U
DNA 1: CAATCTGAATTCCGGTCTCCC
DNA 2: TGGTGGCTACGACGGGATT
B29: AACACAA (DNA:RNA)
RNA: B8 RNA with C25A, G26A, U27C
DNA 1: CAATCTGAATTCCGGTCTCCC
DNA 2: TGGTGGCTACGACGGGATT
B30: AGCUGUA (DNA:RNA)
RNA: B8 RNA with C25A, U27C, A28U, C29G, A30U
DNA 1: CAATCTGAATTCCGGTCTCCC
DNA 2: TGGTGGCTACGACGGGATT
B31: AGCCCUC (DNA:RNA)
RNA: B8 RNA with C25A, U27C, A28C, A30U, A31C
DNA 1: CAATCTGAATTCCGGTCTCCC
DNA 2: TGGTGGCTACGACGGGATT

target: T1, RBFOX1 RRM RbFoxmut (Fox-RRM*); experiment: EMSA; HiTS-Eq, 1 nM pool, 10 min; buffer printed only for the single-RNA assays: 10 mM Tris pH 7.5, 150 mM NaCl, 3.4 mM EDTA, 0.001% NP-40, 30 C; conditions: tags: His6 N-terminal (pET28a); label: 5' 32P
Procedure, shortened: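 A pool of RNA with 7 randomized nucleotides, 5′-radiolabelled and with DNA-annealed flanks, was equilibrated at 1 nM for 10 min in 50 µL with purified RbFox RRM, wild type or mutant, across increasing protein concentrations. Free RNA was separated by 8% native PAGE, excised, reverse-transcribed, barcoded by PCR and sequenced. Relative association constants were obtained from read-count changes of each RNA species versus the control reaction and normalised to the cognate motif.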

Binder | binding signal
B1 | 0.0976 KA relative to UGCAUGU
B2 | 0.0844 KA relative to UGCAUGU
B3 | 0.108 KA relative to UGCAUGU
B4 | 0.0987 KA relative to UGCAUGU
B5 | 0.126 KA relative to UGCAUGU
B6 | 0.106 KA relative to UGCAUGU
B7 | 0.0754 KA relative to UGCAUGU
B8 | 0.0599 KA relative to UGCAUGU
B9 | 0.0778 KA relative to UGCAUGU
B10 | 0.135 KA relative to UGCAUGU
B11 | 0.0972 KA relative to UGCAUGU
B12 | 0.0704 KA relative to UGCAUGU
B13 | 0.0823 KA relative to UGCAUGU
B14 | 0.0786 KA relative to UGCAUGU
B15 | 0.168 KA relative to UGCAUGU
B16 | 0.125 KA relative to UGCAUGU

Binder | binding signal
B17 | 0.101 KA relative to UGCAUGU
B18 | 0.0499 KA relative to UGCAUGU
B19 | 0.113 KA relative to UGCAUGU
B20 | 0.0612 KA relative to UGCAUGU
B21 | 0.105 KA relative to UGCAUGU
B22 | 0.0782 KA relative to UGCAUGU
B23 | 0.094 KA relative to UGCAUGU
B24 | 0.115 KA relative to UGCAUGU
B25 | 0.0956 KA relative to UGCAUGU
B26 | 0.0766 KA relative to UGCAUGU
B27 | 0.0874 KA relative to UGCAUGU
B28 | 0.144 KA relative to UGCAUGU
B29 | 0.0832 KA relative to UGCAUGU
B30 | 0.163 KA relative to UGCAUGU
B31 | 0.0675 KA relative to UGCAUGU
